Laboratory results as given in the supplement of paper PMC4967469.
Lines with a small IC50 respond at low doses; a fit beyond the top or the lowest dose is shown as a bound at that dose. AUC, from the same fit, is the share of area under the viability curve across the 256-fold dose range; it is 1 without any effect and falls as sensitivity rises. For some of these results: A top dose marked as inferred is not printed in the source and was worked back from the curve model. For some of these results: Where an entry number is given, a second screen of the drug exists; the two often differ.

Tests used:
Assay in all cases: Viability of human cancer cell lines after 72 h of drug (GDSC screen)
UNC0638 = compound: COc1cc2c(NC3CCN(C(C)C)CC3)nc(C3CCCCC3)nc2cc1OCCCN1CCCC1 [UNC0638]
Procedure: (§1)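 Human cancer cell lines in 384-well plates, medium with 10% serum, drug for 72 h over a 256-fold dose range (nine 2-fold or five 4-fold steps up to the top dose). Adherent lines were fixed and stained with the nucleic acid dye Syto60, suspension lines read with resazurin; signal relative to control wells, capped at 0 and 100%. One two-parameter sigmoid per drug and line, fitted in a mixed model over all curves with the slope shared within a line.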

PI-103 = compound: Oc1cccc(-c2nc(N3CCOCC3)c3oc4ncccc4c3n2)c1 [PI-103]; settings: top dose 10.24 µM
Procedure: as §1

Tretinoin = compound: CC1=C(/C=C/C(C)=C/C=C/C(C)=C/C(=O)O)C(C)(C)CCC1 [Tretinoin]; settings: top dose 10 µM; top dose inferred
Procedure: as §1

SB-505124 = compound: Cc1cccc(-c2[nH]c(C(C)(C)C)nc2-c2ccc3c(c2)OCO3)n1 [SB-505124]; settings: top dose 10 µM; top dose inferred
Procedure: as §1

GSK690693 = compound: CCn1c(-c2nonc2N)nc2c(C#CC(C)(C)O)ncc(OC[C@H]3CCCNC3)c21 [GSK690693]; settings: top dose 10.24 µM; top dose inferred
Procedure: as §1

BX-795 = compound: O=C(NCCCNc1nc(Nc2cccc(NC(=O)N3CCCC3)c2)ncc1I)c1cccs1 [BX-795]; settings: top dose 5 µM; top dose inferred
Procedure: as §1

[1] = top dose 20 µM, screen: GDSC drug entry 1236, top dose inferred
[2] = top dose 40 µM, screen: GDSC drug entry 245

Cell Line	AUC (UNC0638; [1])	IC50 (UNC0638; [1])	AUC (UNC0638; [2])	IC50 (UNC0638; [2])	AUC (PI-103)	IC50 (PI-103)	AUC (Tretinoin)	IC50 (Tretinoin)	AUC (SB-505124)	IC50 (SB-505124)	AUC (GSK690693)	IC50 (GSK690693)	AUC (BX-795)	IC50 (BX-795)
SK-MEL-30 (melanoma, adherent)	0.732	5.97 µM	0.527	2.97 µM	0.527	0.762 µM	0.977	> 10 µM	0.984	> 10 µM	0.974	> 10.2 µM	0.97	> 5 µM
SK-MES-1 (lung squamous cell carcinoma, adherent)	0.873	> 20 µM	0.656	7.08 µM	0.468	0.52 µM	0.981	> 10 µM	0.959	> 10 µM	0.98	> 10.2 µM	0.822	3.27 µM
SK-MG-1 (glioma, adherent)	0.798	9.61 µM	0.754	13.6 µM	0.987	> 10.2 µM	0.987	> 10 µM	0.984	> 10 µM	0.987	> 10.2 µM	0.762	1.81 µM
SK-N-AS (neuroblastoma, adherent)	0.956	> 20 µM	0.781	19.4 µM	0.539	0.833 µM	0.858	> 10 µM	0.982	> 10 µM	0.969	> 10.2 µM	0.864	> 5 µM
SK-N-SH (neuroblastoma, adherent)	0.951	> 20 µM	0.895	> 40 µM	0.787	4.42 µM	0.834	6.43 µM	0.969	> 10 µM	0.975	> 10.2 µM	0.792	2.24 µM
SK-OV-3 (ovary, adherent)	0.882	> 20 µM	0.638	6.67 µM	0.388	0.292 µM	0.97	> 10 µM	0.978	> 10 µM	0.732	3.54 µM	0.919	> 5 µM
SKG-IIIa (cervix, adherent)	0.98	> 20 µM	0.98	> 40 µM	0.983	> 10.2 µM	0.968	> 10 µM	0.973	> 10 µM	0.983	> 10.2 µM	0.901	> 5 µM
SKN (uterus, adherent)	0.826	15.7 µM	0.713	11.5 µM	0.764	4.49 µM	0.878	> 10 µM	0.94	> 10 µM	0.957	> 10.2 µM	0.684	1.14 µM
SKN-3 (head and neck, adherent)	0.776	9.45 µM	0.822	29.1 µM	0.899	> 10.2 µM	0.884	> 10 µM	0.951	> 10 µM	0.981	> 10.2 µM	0.887	> 5 µM
SNG-M (endometrium, adherent)	0.763	7.06 µM	0.986	> 40 µM	0.278	0.152 µM	0.984	> 10 µM	0.981	> 10 µM	0.743	3.11 µM	0.888	> 5 µM
SNU-61 (large intestine, adherent)	0.966	> 20 µM	0.86	> 40 µM	0.913	> 10.2 µM	0.982	> 10 µM	0.977	> 10 µM	0.955	> 10.2 µM	0.979	> 5 µM
SNU-81 (large intestine, adherent)	0.98	> 20 µM	0.835	> 40 µM	0.967	> 10.2 µM	0.981	> 10 µM	0.98	> 10 µM	0.554	0.944 µM	0.865	> 5 µM
SNU-182 (liver, adherent)	0.849	16 µM	0.936	> 40 µM	0.459	0.493 µM	0.986	> 10 µM	0.976	> 10 µM	0.986	> 10.2 µM	0.891	> 5 µM
SNU-387 (liver, adherent)	0.773	8.92 µM	0.638	6.35 µM	0.983	> 10.2 µM	0.978	> 10 µM	0.982	> 10 µM	0.955	> 10.2 µM	0.75	1.84 µM
SNU-407 (large intestine, adherent)	0.929	> 20 µM	0.908	> 40 µM	0.88	> 10.2 µM	0.983	> 10 µM	0.979	> 10 µM	0.847	9.52 µM	0.828	3.81 µM
SNU-423 (liver, adherent)	0.685	4.53 µM	0.672	8.25 µM	0.226	0.0867 µM	0.951	> 10 µM	0.959	> 10 µM	0.801	6 µM	0.862	> 5 µM
SNU-449 (liver, adherent)	0.82	12.9 µM	0.923	> 40 µM	0.354	0.242 µM	0.976	> 10 µM	0.985	> 10 µM	0.986	> 10.2 µM	0.896	> 5 µM
SNU-C5 (large intestine, adherent)	0.938	> 20 µM	0.979	> 40 µM	0.735	3.25 µM	0.986	> 10 µM	0.984	> 10 µM	0.969	> 10.2 µM	0.903	> 5 µM
SU8686 (pancreas, adherent)	0.84	16.3 µM	0.821	26.9 µM	0.908	> 10.2 µM	0.985	> 10 µM	0.984	> 10 µM	0.966	> 10.2 µM	0.959	> 5 µM
SU-DHL-5 (B-cell lymphoma, suspension)	0.647	2.86 µM	0.411	1.52 µM	0.096	0.054 µM	0.979	> 10 µM	0.946	> 10 µM	0.116	0.0636 µM	0.679	0.855 µM
